These results are taken from PubChem BioAssay (NCI).

The structures appear in SMILES notation.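 All cell lines were grown in 96-well plates and treated with compound for 48 hours. Here, GI50 denotes the concentration required for 50% inhibition of growth.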 Not every entry of the source has a single result; some have several. This list holds those alone. An entry can have further records. For some of these results: A record mostly stands for its own series of concentrations, not given here; some values may only mark the edge of a range. For some of these results: Values given together are repeats across runs, samples, wells, individuals or studies. What stands in brackets tells the records apart. The letters are not those of the source and start again with each entry.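 TGI marks complete inhibition of growth.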 Bounds are passed on as bounds.

Among the test systems are OVCAR-4 ovarian; HL-60(TB) leukemia; IGROV1 ovarian; OVCAR-8 ovarian; ACHN renal; NCI-H522 lung; SF-295 CNS; HCC-2998 colon; RPMI-8226 leukemia; CAKI-1 renal; NCI-H23 lung; SF-268 CNS; KM12 colon; HT29 colon; SNB-19 CNS; MOLT-4 leukemia; SK-MEL-5 melanoma; NCI-H226 lung; SF-539 CNS; EKVX NSCLC; HOP-62 NSCLC; SNB-78 CNS; SK-OV-3 ovarian; SK-MEL-28 melanoma.
Common to all, as to test: NCI-60 cell line screen, 48 h

Regarding `Cc1cc(=O)c2c(O)c3c(O)cc(O)c4c5c(O)cc(O)c6c(O)c7c(=O)cc(C)c8c1c2c(c34)c(c65)c78`, the GI50 in the test with OVCAR-4 ovarian is > 100 µM [sample A, 1 test] and 8.51 µM [sample B, mean of 2 tests].
With `Cc1cc2nc3ccc(N=Nc4ccc(N(C)C)cc4)cc3n(-c3ccccc3)c-2cc1=N`, the TGI in the test with HL-60(TB) leukemia was 6.39 µM and 52.7 nM; in the test on IGROV1 ovarian, 78.2 nM and 1.22 µM; with OVCAR-8 ovarian, 183 nM and > 100 µM; with ACHN renal, 110 nM and 1.21 µM; with NCI-H522 lung, 274 nM and > 100 µM; with SF-295 CNS, 77.3 nM and > 100 µM.
Turning to `CC[C@](O)(C(=O)O)c1cc2n(c(=O)c1CO)Cc1cc3ccccc3nc1-2`, the GI50 was 6.67 nM [1 test] and 107 nM [mean of 2 tests] with HCC-2998 colon; < 2.5 nM [1 test] and < 12.8 nM, 362 nM [mean of 2 tests] in the test on SF-268 CNS; 4.03 nM and 40.6 nM in the test on SK-MEL-5 melanoma; 12.4 nM [1 test] and 27 nM, 563 nM [mean of 2 tests] in the test with NCI-H226 lung; 5.2 nM [1 test] and 68 nM [mean of 2 tests] in the test on NCI-H522 lung. The TGI with HCC-2998 colon was 25 nM [1 test] and 893 nM [mean of 2 tests]; in the test with RPMI-8226 leukemia it was 221 nM [mean of 2 tests] and 4.97 µM [mean of 4 tests]; in the test with CAKI-1 renal, 1.3 µM, 151 nM, 48.2 nM; in the test on NCI-H23 lung, 28.7 nM, 118 nM, 506 nM; in the test with SF-268 CNS, 25 µM [1 test] and 281 nM, 49 µM [mean of 2 tests]; in the test with KM12 colon it was 15.1 µM, 1.26 µM [mean of 2 tests] and 9.89 µM [mean of 3 tests]. Also, the TGI in the test on HT29 colon is 25 µM, 349 nM, 11.9 µM; with SNB-19 CNS, 18.1 µM, > 79 µM, 3.71 µM; with MOLT-4 leukemia, 3.98 nM, 193 nM, 772 nM; in the test with SF-539 CNS it was 8.52 nM, 52.4 nM, 168 nM; with EKVX NSCLC, 14.8 µM, > 60.8 µM, 84.6 nM; in the test with IGROV1 ovarian, 25 µM, 1.31 µM, 1.19 µM. The TGI with OVCAR-8 ovarian was 25 µM, 289 nM [1 test] and 770 nM [mean of 4 tests]; in the test with HOP-62 NSCLC it was 1.22 µM, 114 nM, 63.5 nM; with NCI-H522 lung, 2.71 µM, 290 nM, 2.95 µM; with SNB-78 CNS it was 4.54 µM [1 test] and 250 µM [mean of 2 tests]; in the test on SK-OV-3 ovarian it was 25 µM, 620 nM, 452 nM; in the test with SK-MEL-28 melanoma, 25 µM, 2.98 µM [mean of 2 tests] and 1.04 µM [mean of 3 tests].
`CC1=C[C@H]2c3c(c(O)c(O)c4oc5cc(O)cc(O)c5c(=O)c34)[C@H](c3cc(O)c(O)c4oc5cc(O)cc(O)c5c(=O)c34)[C@H]2C(C)(C)C1`: in the test on OVCAR-8 ovarian, the TGI was 9.18 µM [sample A, 1 test] and > 100 µM [sample B, 1 test].
